Assay results reported in the supplement of paper PMC4967469.
A lower IC50 marks a more sensitive line; a fit beyond the top or the lowest dose is shown as a bound at that dose. The AUC spans the tested range (256-fold, ending at the top dose) of the same fit; the more sensitive the line, the further below 1. For some assays here: Any top dose called inferred was derived from the fitted curves, not read from the paper.

Tests used:
Test in all cases: Viability of human cancer cell lines after 72 h of drug (GDSC screen)
QL-XI-92 = compound: C=CC(=O)Nc1cc(NC(=O)c2ccc(C)c(NC(=O)c3ccno3)c2)cc(C(F)(F)F)c1 [QL-XI-92]; conditions: top dose 10.24 µM; top dose inferred
Protocol: (§1)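 Human cancer cell lines in 384-well plates, medium with 10% serum, drug for 72 h over a 256-fold dose range (nine 2-fold or five 4-fold steps up to the top dose). Adherent lines were fixed and stained with the nucleic acid dye Syto60, suspension lines read with resazurin; signal relative to control wells, capped at 0 and 100%. One two-parameter sigmoid per drug and line, fitted in a mixed model over all curves with the slope shared within a line.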

Vinorelbine = compound: CCC1=C[C@@H]2CN(C1)Cc1c([nH]c3ccccc13)[C@@](C(=O)OC)(c1cc3c(cc1OC)N(C)[C@H]1[C@@](O)(C(=O)OC)[C@H](OC(C)=O)[C@]4(CC)C=CCN5CC[C@]31[C@@H]54)C2 [Vinorelbine]; conditions: top dose 0.064 µM; top dose inferred
Protocol: as §1

AG-014699 = compound: CNCc1ccc(-c2[nH]c3cc(F)cc4c3c2CCNC4=O)cc1 [AG-014699]; conditions: top dose 5 µM; top dose inferred
Protocol: as §1

XL-184 = compound: COc1cc2nccc(Oc3ccc(NC(=O)C4(C(=O)Nc5ccc(F)cc5)CC4)cc3)c2cc1OC [XL-184]; conditions: top dose 5.12 µM; top dose inferred
Protocol: as §1

WHI-P97 = compound: COc1cc2ncnc(Nc3cc(Br)c(O)c(Br)c3)c2cc1OC [WHI-P97]; conditions: top dose 10.24 µM; top dose inferred
Protocol: as §1

Gefitinib = compound: COc1cc2ncnc(Nc3ccc(F)c(Cl)c3)c2cc1OCCCN1CCOCC1 [Gefitinib]; conditions: top dose 0.5 µM
Protocol: as §1

Phenformin = compound: N=C(N)NC(=N)NCCc1ccccc1 [Phenformin]; conditions: top dose 4000 µM; top dose inferred
Protocol: as §1

EHT 1864 = compound: O=c1cc(CN2CCOCC2)occ1OCCCCCSc1ccnc2cc(C(F)(F)F)ccc12 [EHT 1864]; conditions: top dose 10 µM; top dose inferred
Protocol: as §1

NU-7441 = compound: O=c1cc(N2CCOCC2)oc2c(-c3cccc4c3sc3ccccc34)cccc12 [NU-7441]; conditions: top dose 2 µM; top dose inferred
Protocol: as §1

Cell Line	AUC (QL-XI-92)	IC50 (QL-XI-92) [µM]	AUC (Vinorelbine)	IC50 (Vinorelbine) [µM]	AUC (AG-014699)	IC50 (AG-014699) [µM]	AUC (XL-184)	IC50 (XL-184) [µM]	AUC (WHI-P97)	IC50 (WHI-P97) [µM]	AUC (Gefitinib)	IC50 (Gefitinib) [µM]	AUC (Phenformin)	IC50 (Phenformin) [µM]	AUC (EHT 1864)	IC50 (EHT 1864) [µM]	AUC (NU-7441)	IC50 (NU-7441) [µM]
SAS (head and neck, adherent)	0.944	> 10.2	0.984	> 0.064	0.963	> 5	0.874	> 5.12	0.84	8.24	0.891	> 0.5	0.795	2090	0.896	> 10	0.979	> 2
SAT (head and neck, adherent)	0.975	> 10.2	0.925	> 0.064	0.964	> 5	0.909	> 5.12	0.963	> 10.2	0.695	0.15	0.925	> 4000	0.91	> 10	0.927	> 2
SBC-3 (small cell lung carcinoma, adherent)	0.612	1.26	0.542	0.00515	0.952	> 5	0.9	> 5.12	0.958	> 10.2	0.989	> 0.5	0.882	3560	0.972	> 10	0.984	> 2
SBC-5 (small cell lung carcinoma, adherent)	0.993	> 10.2	0.463	0.00323	0.972	> 5	0.978	> 5.12	0.993	> 10.2	0.993	> 0.5	0.87	2600	0.924	> 10	0.993	> 2
SCC-9 (head and neck, adherent)	0.876	> 10.2	0.425	0.00236	0.968	> 5	0.799	3.29	0.8	6.63	0.968	> 0.5	0.544	341	0.924	> 10	0.975	> 2
SCC-25 (head and neck, adherent)	0.918	> 10.2	0.64	0.0103	0.971	> 5	0.818	3.38	0.866	> 10.2	0.904	> 0.5	0.299	62.4	0.941	> 10	0.98	> 2
SF268 (glioma, adherent)	0.91	> 10.2	0.7	0.0153	0.921	> 5	0.951	> 5.12	0.977	> 10.2	0.985	> 0.5	0.964	> 4000	0.975	> 10	0.973	> 2
SF295 (glioma, adherent)	0.955	> 10.2	0.666		0.945	> 5	0.912	> 5.12	0.985	> 10.2	0.945	> 0.5	0.834	2890	0.871	> 10	0.964	> 2
SF539 (glioma, adherent)	0.851	6.64	0.677	0.0118	0.935	> 5	0.878	4.28	0.976	> 10.2	0.988	> 0.5	0.726	1010	0.96	> 10	0.974	> 2
SJRH30 (rhabdomyosarcoma, adherent)	0.831	6.77	0.724	0.0177	0.921	> 5	0.986	> 5.12	0.986	> 10.2	0.986	> 0.5	0.833	2700	0.926	> 10	0.969	> 2
SK-HEP-1 (liver, adherent)	0.988	> 10.2	0.54	0.00509	0.983	> 5	0.96	> 5.12	0.977	> 10.2	0.966	> 0.5	0.94	> 4000	0.975	> 10	0.989	> 2
SK-MEL-3 (melanoma, adherent)	0.96	> 10.2	0.717	0.0184	0.985	> 5	0.932	> 5.12	0.936	> 10.2	0.983	> 0.5	0.77	1760	0.861	> 10	0.982	> 2
SK-MEL-30 (melanoma, adherent)	0.934	> 10.2	0.635	0.00965	0.984	> 5	0.939	> 5.12	0.986	> 10.2	0.933	> 0.5	0.414	143	0.964	> 10	0.938	> 2
SK-MES-1 (lung squamous cell carcinoma, adherent)	0.937	> 10.2	0.57	0.00634	0.936	> 5	0.983	> 5.12	0.892	> 10.2	0.944	> 0.5	0.88	> 4000	0.954	> 10	0.958	> 2
SKG-IIIa (cervix, adherent)	0.983	> 10.2	0.865	> 0.064	0.981	> 5	0.982	> 5.12	0.977	> 10.2	0.963	> 0.5	0.28	47.3	0.924	> 10	0.956	> 2
